Read counts are not given, so values of variants with three or more changes are uncertain.

The text below walks through data of the RNAGym collection of RNA variant scans (doi:10.7554/elife.90254).

B1: LINE1-mini (parent)
chain: GGCAGAGCUCAACACAGCGUGGCAAAGUGGCUGUGGCUAGACUGCC

The variants in the data set derive from B1. In words: self-cleavage, relative activity (ratio to wild type); higher = more cleavage; in vitro, sequencing; the parent is a self-cleaving ribozyme.
In the case of GGCAGAGCUCCUCACAACGUGGCAACGUGGCAGUUCCUAGACUGCC [A11C A12U G17A A26C U32A G35U G36C], the self-cleavage was found to be 0.01.

Take GGCAGAGCUCCUCACAGCCUGGCAAAGGGGCUGUGGCUAGACUGCC [A11C A12U G19C U28G]: the self-cleavage turned out to be 0.

Consider GGCAGAGCUUAACACAGCGAGGCAUAGUGGCUGGGGCUAGACUGCC [C10U U20A A25U U34G], for which the self-cleavage was 0.31.

Consider GGCAGAGCUCCGCACAGCGUGGCAAAGUGGCUGUGGCUAGACUACC [A11C A12G G44A], for which the self-cleavage worked out at 0.02.

For the variant GGCAGAGCUCCGCACAGCGUGGCAAAGUCGCUGUGGCUAGACUGCC [A11C A12G G29C], the self-cleavage is 0.01.

Take GGCAGAGCUCCGCACAGCGUGGCAAAGUUGCUGUGGCUAGACUGCC [A11C A12G G29U]: the self-cleavage came out at 0.06.

With GGCAGAGCUCCUCACAGCGUGGCAAAGUGGCUGGGGCUAGGCUGCC [A11C A12U U34G A41G], the self-cleavage is 0.01.

Turning to GGCAGAGCUUAACACAGCGUGGCAAAGCGGCAGUGGCUAGAAUGAC [C10U U28C U32A C42A C45A], the self-cleavage was found to be 0.04.

In the case of GGCAGAGCUUAACACAGCGUGGCAAAGAGGCUGUGGCUAGACCGCC [C10U U28A U43C], the self-cleavage stood at 0.02.

Regarding GGCAGAGCUCCCCACAGCGUGGCAAAGUGGCUGUGGCUAGACUCCC [A11C A12C G44C], the self-cleavage stood at 0.03.

Turning to GGCAGAGCUUAACACAGCGUGGCAAAGUGGCGGUGGCUUGACUGCC [C10U U32G A39U], the self-cleavage came out at 0.05.

Take GGCAGAGCUCCUCACAGGGUAGCAAAGUGGCUGUGGCUAGACUGCC [A11C A12U C18G G21A]: the self-cleavage was 0.02.

Regarding GGCAGAGCUCCCCACAGCGUGCCAAAGUGGCUGUGGCUAGACUGCC [A11C A12C G22C], the self-cleavage was found to be 0.

GGCAGAGCUCCGCAAAGCGUGGCCAAGUGGCGGUGGCUAGACUGCC [A11C A12G C15A A24C U32G]: the self-cleavage was 0.02.

Consider GGCAGAGCUUAACACAGCGCGGCAAAGUGGUUGAGCCUAGAGUCCC [C10U U20C C31U U34A G36C C42G G44C], for which the self-cleavage was found to be 0.01.

On to GGCAGAGCUUAACACAGCGUGGCAAAGCGGCUGUGGCUAGACUCCC [C10U U28C G44C], for which the self-cleavage stood at 0.03.

Turning to GGCAGAGCUCCGCACGGCGUGGCAAAGUGGCUGUCGCUAGACUGCC [A11C A12G A16G G35C], the self-cleavage stood at 0.01.

For the variant GGCAGAGCUCCGCACAGCGUGGCAUAGUGGCUGUGGCUAGACUGCC [A11C A12G A25U], the self-cleavage stood at 0.

Consider GGCAGAGCUCCGCACAGCGUGGCAGAGUGGCUGUGGCUAGACUGCC [A11C A12G A25G], for which the self-cleavage worked out at 0.

Take GGCAGAGCUUAACACAGCGUGGCAAAGUGGCUGGGGCAAGACUGUC [C10U U34G U38A C45U]: the self-cleavage was determined as 0.04.

For the variant GGCAGAGCUUAACACAGCGUGGCAAAGUGGCUGGGGCGAGACUGCC [C10U U34G U38G], the self-cleavage amounted to 0.05.

With GGCAGAGCUCCCCACAGCGUGGCAAAGUGGCUGUGGCUAGACUGAC [A11C A12C C45A], the self-cleavage was 0.01.

Consider GGCAGAGCUCCUCAUAGCAUGGCAAAGUGGCUGUGGCUAGACUGCC [A11C A12U C15U G19A], for which the self-cleavage amounted to 0.03.

Consider GGCAGAGCUUAACACAGCGUGGCAAAGUGGCAGUGGCUAGAGAGCC [C10U U32A C42G U43A], for which the self-cleavage came to 0.02.

In the case of GGCAGAGCUCCGCACAGCGUGGCAAAGUGCCUGUGGCUAGACUGCC [A11C A12G G30C], the self-cleavage was found to be 0.03.

With GGCAGAGCUCCCCACAGCGUGGCAAAGUGGCUGUGGCUAAACUUCC [A11C A12C G40A G44U], the self-cleavage is 0.01.

Regarding GGCAGAGCUUAACACAGCGUGGCAAAGUGGCUGUGGCGAGACUGUC [C10U U38G C45U], the self-cleavage was 0.02.

In the case of GGCAGAGCUCCGGACAGCGUGGCAAAGUGGCUGUGGCUAGACUGCC [A11C A12G C13G], the self-cleavage worked out at 0.

Regarding GGCAGAGCUUAACACAGCGUGGCAAAGCGGCUGUGGCAAGACUGUC [C10U U28C U38A C45U], the self-cleavage stood at 0.01.

As for GGCAGAGCUUAACACAGCGUGGCAAAGAGGCUGUGGCUAUACUGCC [C10U U28A G40U], the self-cleavage amounted to 0.07.

As to GGCAGAGCUUAACACAGCGCGGCAAAGUGGCUGAGGCUAGACUGCC [C10U U20C U34A], the self-cleavage is 0.08.

Turning to GGCAGAGCUUAACACAGCGAGGUAAAGUGGCUGUCGCUAGACUGCC [C10U U20A C23U G35C], the self-cleavage came out at 0.01.

Consider GGCAGAGCUUAACACAGCGUGGCAAAGGGGCUGUGGCUAGUCUGCC [C10U U28G A41U], for which the self-cleavage was 0.03.

Turning to GGCAGAGCUUAACACAGCGCGGCAAAGUGGCUGUGGGUAGACUGCC [C10U U20C C37G], the self-cleavage turned out to be 0.01.

Consider GGCAGAGCUCCCGACAGCGUGGCAAAGUCUCUGUGGCUAGACUGCC [A11C A12C C13G G29C G30U], for which the self-cleavage stood at 0.

Turning to GGCAGAGCUCCUCACAGCGUAGCAAAGUAGCUGUGGCUAGAUUGCA [A11C A12U G21A G29A C42U C46A], the self-cleavage worked out at 0.02.

With GGCAGAGCUUAACACAGCGUGGCAAAGUGGCUGCGGCUAGACUACC [C10U U34C G44A], the self-cleavage turned out to be 0.04.

For GGCAGAGCUUAACACAGCGUGGCAAAGUGGCUGCGGCUAGACUCCC [C10U U34C G44C], the self-cleavage was found to be 0.06.

Take GGCAGAGCUCCUAACAGCGUGGCAAAGUGGCUGUGGCAAGACUGCC [A11C A12U C13A U38A]: the self-cleavage was 0.05.

As for GGCAGAGCUUAACACAGCGUGGCAAAGGGGCUGUUGCUAGACUGCC [C10U U28G G35U], the self-cleavage is 0.13.

In the case of GGCAGAGCUUAACACAGCGUGGCAAAGUGGCGGUGGCUAGCCUGCC [C10U U32G A41C], the self-cleavage came out at 0.02.

In the case of GGCAGAGCUUAACACAGCGUGGCAAAGGCGCUGUUGCUAGACUGCC [C10U U28G G29C G35U], the self-cleavage was determined as 0.03.

With GGCAGAGCUCCCCGCUGCGGGGUAAAGUGGAUGUGGCUAGACUGCC [A11C A12C A14G A16U U20G C23U C31A], the self-cleavage was 0.01.

For the variant GGCAGAGCUCCCCACAGGGUGGCAAAGUGGCUGUGGCUAGAUUGCG [A11C A12C C18G C42U C46G], the self-cleavage worked out at 0.01.

Consider GGCAGAGCUUAACACAGCGAGGCAAAGUGGCUGUGGCUAGUCUGCC [C10U U20A A41U], for which the self-cleavage came out at 0.02.

Take GGCAGAGCUUAACACAGCGUGGCAAAGUGGCUGUGGCUAGACAUGC [C10U U43A G44U C45G]: the self-cleavage came to 0.03.

With GGCAGAGCUUAACACAGCGUGGCAAAGUGGCUGCGGCUAGAUUGCC [C10U U34C C42U], the self-cleavage amounted to 0.02.

For GGCAGAGCUCCUCACAGCGUGGCAAAGUGGCUGUGGCUGGAAUGCA [A11C A12U A39G C42A C46A], the self-cleavage was found to be 0.01.

As to GGCAGAGCUUAACACAGCGUGGCAAAGUGGCUGUGGCUAGACUCGC [C10U G44C C45G], the self-cleavage was determined as 0.02.

For GGCAGAGCUCCCCGCAGCGUGGCAAAGUGGCUGUGGCUAGACUGCC [A11C A12C A14G], the self-cleavage was 0.01.

For GGCAGAGCUUAACACAGCGAAGCAAAGUGGCUGUGGCUAGACUGCC [C10U U20A G21A], the self-cleavage turned out to be 0.28.

As to GGCAGAGCUCCGCACCGCGUGGCAAAGUGGCUGUGGCUAGAGUGCC [A11C A12G A16C C42G], the self-cleavage came to 0.02.

GGCAGAGCUUAACACAGCGCGGCAAAGUGGCUGUGGCUAUACUGCC [C10U U20C G40U]: the self-cleavage was 0.04.

Consider GGCAGAGCUCCUCACAGCGUGGCAAUGUGGCUGUGGCUACACUGCC [A11C A12U A26U G40C], for which the self-cleavage amounted to 0.01.

Take GGCAGAGCUUAACACAGCGAGGCAAAGUGGCUGUCGCUAGACUGCC [C10U U20A G35C]: the self-cleavage came to 0.04.

On to GGCAGAGCUCCGCACAGCGUGGCAAAGUGGCUGUGGCUACACUGCC [A11C A12G G40C], for which the self-cleavage stood at 0.02.
